In PubChem BioAssay AID624417 (National Center for Advancing Translational Sciences (NCATS), 2012):
Where “and” joins values, the source holds several entries; their conditions need not be identical. Identical values can stand only once. Out of some 410,000 compounds screened, about 6,400 (1.6%) were called active. This list was built around the results that the source calls inconclusive (neither active nor inactive); the mix of calls is not that of the screen. Calls come from the whole dose curve; as a rule, active = well fitted inhibition curve with a large enough effect; inconclusive = small, poorly fitted or top-dose-only effect; inactive = no such curve, though single readings can be large or run the other way. Where the call is inconclusive, the potency comes from a doubtful curve fit.

target: Glucagon-like peptide 1 receptor (Homo sapiens) (UniProt P43220); assay: qHTS of GLP-1 Receptor Inverse Agonists (Inhibition Mode); conditions: HEK293 GLP-1R CRE-luciferase, luminescence, 24 h, GLP-1R form is constitutively active; series mostly up to 38.3 µM; note: nearly all actives have a fitted effect of over 55% in size
UniProt P43220, sequence (P43220 whole entry, looked up): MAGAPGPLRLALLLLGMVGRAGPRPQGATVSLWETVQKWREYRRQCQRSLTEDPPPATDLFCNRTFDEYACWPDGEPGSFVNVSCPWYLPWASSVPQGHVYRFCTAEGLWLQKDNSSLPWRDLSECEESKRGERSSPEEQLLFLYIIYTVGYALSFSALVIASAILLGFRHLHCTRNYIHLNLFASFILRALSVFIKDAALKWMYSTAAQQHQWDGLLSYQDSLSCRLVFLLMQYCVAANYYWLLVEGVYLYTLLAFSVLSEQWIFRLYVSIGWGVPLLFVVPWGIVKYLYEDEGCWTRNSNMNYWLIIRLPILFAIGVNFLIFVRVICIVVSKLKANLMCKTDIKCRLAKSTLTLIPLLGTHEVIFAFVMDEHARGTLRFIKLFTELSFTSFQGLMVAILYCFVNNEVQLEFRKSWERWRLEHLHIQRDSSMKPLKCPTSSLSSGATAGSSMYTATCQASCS
Outline: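 HEK293 cells stably co-expressing a cAMP-responsive luciferase reporter and constitutively active GLP-1R were seeded, incubated 12 h, then exposed to compounds for 24 h at 37 C. Luminescence was read 12 min after detection reagent; inverse agonists lower signal.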
Potency is the fitted concentration of half-maximal effect; tags give direction and shape of the fitted curve.

Row | Structure (SMILES) | Potency
1 | COC(=O)C1=C(C)NC(C)=C(C(=O)OCC(C)C)C1c1ccccc1[N+](=O)[O-] (stereo not drawn) | inconclusive: 7.08 µM [inhibitor, partial curve, poor fit]
2 | CCCCc1ccc(-n2nnnc2SCC(=O)Nc2cc(OC)c([N+](=O)[O-])cc2C)cc1 | inconclusive: 2.24 µM [inhibitor, partial curve, poor fit]
3 | O=C1C2C3C=CC(C3)C2C(=O)N1/N=C/c1cn(Cc2ccccc2)c2ccccc12 (stereo not drawn) | inconclusive: 12.6 µM [inhibitor, partial curve, poor fit]
4 | O=C(/C=C/c1ccccc1[N+](=O)[O-])N1CCCCC1 | inactive
5 | O=C(Nc1cccnc1)c1ccc(Oc2ccccc2)cc1 | inconclusive: 14.1 µM [inhibitor, partial curve, poor fit]
6 | Cc1ccc(CSc2nnc(-c3cccc(S(=O)(=O)N4CCOCC4)c3)n2CC(C)C)cc1 | inconclusive: 11.2 µM [inhibitor, partial curve]
7 | O=C(Cn1nnc(-c2ccccc2-n2cnnn2)n1)NCc1ccccc1 | inactive
8 | CCOC(=O)N1CCN(S(=O)(=O)c2ccc(C(=O)Nc3sc4c(c3C(N)=O)CC(C)(C)NC4(C)C)cc2)CC1 | inconclusive: 12.6 µM [inhibitor, partial curve, poor fit]
9 | COc1ccc(-c2onc(C)c2C)cc1S(=O)(=O)NCC(C)c1ccccc1 (stereo not drawn) | inconclusive: 12.6 µM [inhibitor, single point]
10 | CCn1cc(CN2CCC(C(=O)Nc3ccc(Oc4ccccc4F)cc3)CC2)cn1 | inconclusive: 28.2 µM [inhibitor, single point]
11 | C[C@@H](C(=O)Nc1ccc2c(c1)OCCO2)n1c(=O)[nH]c2ccccc2c1=O | inconclusive: 1 µM [inhibitor, full curve, poor fit]
12 | Cc1ccc(Oc2ccc(S(=O)(=O)NCC(C)(C)N3CCOCC3)cc2)cc1 | inconclusive: 8.91 µM [inhibitor, partial curve, poor fit]
13 | Cc1cc(NC(=O)COCc2cc(-c3ccc(F)cc3)on2)ccc1Br | inactive
14 | COc1cc(F)cc(C2=CC(=O)C[C@H](c3ccc(F)cc3)C2)c1 | inconclusive: 28.2 µM [inhibitor, single point]
15 | O=C1Nc2ccccc2/C1=C/c1ccc([N+](=O)[O-])cc1 | inactive
16 | Cc1ccc(S(=O)(=O)N2CCC(=O)N([C@H](COCc3ccc(C(F)(F)F)cc3)Cc3ccccc3)CC2)cc1 | inconclusive: 28.2 µM [inhibitor, single point]
17 | CC(/C=N/n1c(-c2ccncc2)n[nH]c1=S)=C\c1ccco1 | inactive
18 | COc1cccc2cc(C(=O)C3=C(O)C(=O)N(c4cc(C)on4)C3c3cccs3)oc12 (stereo not drawn) | inconclusive: 12.6 µM [inhibitor, partial curve, poor fit]
19 | O=S(=O)(NC1CCc2ccccc21)c1ccc(S(=O)(=O)N2CCCC2)cc1 (stereo not drawn) | inconclusive: 10 µM [inhibitor, single point]
20 | COC(=O)C(NNc1ccc(F)cc1)(NC(=O)c1ccccc1)C(F)(F)F (stereo not drawn) | inconclusive: 20 µM [inhibitor, single point]
21 | CC(C)N(C(=O)[C@H]1C[C@H](CC(=O)NCc2ccco2)C(=O)N2CCc3c([nH]c4cc(-c5ccco5)ccc34)[C@]12C)C(C)C | inconclusive: 28.2 µM [inhibitor, single point]

Row | Structure (SMILES) | Potency
22 | Cc1ccc(S(=O)(=O)N2CC3C(=O)C[C@@H](c4ccccc4)N(S(=O)(=O)c4cccc(Cl)c4)C3CC2c2ccccc2)cc1 (stereo partly drawn) | inconclusive: 2.24 µM [inhibitor, full curve]
23 | Cc1ccc(NC(=O)CSc2nccn2Cc2ccco2)cc1Cl | inactive
24 | Cc1onc(-c2ccccc2)c1C(=O)N/N=C/c1cccc(O)c1 | inactive
25 | COc1cccc(NC(=O)c2ccccc2N2C(=O)C3C4C=CC(C5CC45)C3C2=O)c1 (stereo not drawn) | inconclusive: 28.2 µM [inhibitor, single point]
26 | COC(=O)c1sccc1NC(=S)N1CCCCC1 | inconclusive: 31.6 µM [inhibitor, single point]
27 | O=c1c(Cc2ccccc2)c(O)ccn1C1CCCCCCC1 | inconclusive: 8.91 µM [inhibitor, partial curve]
28 | COc1ccc(CNCC(O)(c2ccc(F)cc2)c2ccc(F)cc2)cc1 | inconclusive: 12.6 µM [inhibitor, single point]
29 | O=C(CCSc1nc2ccccc2s1)N/N=C/c1c(O)ccc2ccccc12 | inconclusive: 3.16 µM [inhibitor, partial curve, poor fit]
30 | O=C(NCCc1csc(-c2ccccc2)n1)c1cccs1 | inconclusive: 1.58 µM [inhibitor, full curve, poor fit]
31 | O=C(CSc1nc2ccc(Cl)cc2[nH]1)NC1CCCc2ccccc21 (stereo not drawn) | active: 8.91 µM
32 | COc1ccc(OC)c(CNS(=O)(=O)c2ccc3[nH]c4c(c3c2)CCCCC4)c1 | inconclusive: 10 µM [inhibitor, partial curve, poor fit]
33 | O=C(C1CCCCN1S(=O)(=O)c1ccccc1)N1CCN(C(c2ccccc2)c2ccccc2)CC1 (stereo not drawn) | inconclusive: 7.94 µM [inhibitor, partial curve, poor fit]
34 | Cc1ccc(C(=O)c2ccc([N+](=O)[O-])cc2)cc1 | inactive
35 | Cn1nccc1C(=O)N1CCC(Cc2ccccc2)CC1 | inactive
36 | O=C(Cn1c2ncccc2c(=O)n1-c1ccccc1)NCc1ccccc1Cl | inactive
37 | CCCCSc1nc(N)c(C#N)c(-c2cccs2)c1C#N | inconclusive: 28.2 µM [inhibitor, single point]
38 | C[C@H](NC(=O)c1nc[nH]c1C(=O)N[C@@H](CCCCNC(=O)OC(C)(C)C)C(=O)OC(C)(C)C)C(=O)OC(C)(C)C | active: 10 µM
39 | CC1CCc2c(sc(NC(=O)c3cc(-c4cccc(Cl)c4)on3)c2C(N)=O)C1 (stereo not drawn) | inactive
40 | Cc1ccc(NC(=O)Cc2coc3ccc(C(C)C)cc23)c(C)c1 | inconclusive: 10 µM [inhibitor, partial curve, poor fit]
41 | COC(=O)[C@@]1(Cc2ccc(F)cc2)[C@H]2c3cc(C(=O)N4CCCC4)n(Cc4cc(F)cc5c4OCOC5)c3C[C@H]2CN1C(=O)c1ccccc1 | inconclusive: 12.6 µM [inhibitor, single point]
42 | COc1c2ccoc2nc2c(OC)cccc12 | inactive

Row | Structure (SMILES) | Potency
43 | O=C(NCC(c1ccco1)N1CCCC1)c1sc2ccccc2c1Cl (stereo not drawn) | inactive
44 | Fc1ccc(-c2ccc(CNCCSc3nnnn3-c3ccccc3)o2)cc1 | inconclusive: 12.6 µM [inhibitor, single point]
45 | O=C(Nc1ccc2c(c1)OCO2)c1ccc(Br)s1 | inconclusive: 28.2 µM [inhibitor, single point]
46 | CN(c1ccccc1)S(=O)(=O)c1cccc(NC(=O)COc2cccc([N+](=O)[O-])c2)c1 | active: 10 µM
47 | CCCCNC(=O)/C=C/c1ccc(S(=O)(=O)Nc2ccc(OC)cc2)cc1 | inconclusive: 11.2 µM [inhibitor, single point]
48 | O=C(NCc1cccnc1)c1cc(C2CCCN(C(=O)c3cccs3)C2)on1 (stereo not drawn) | inactive
49 | Fc1ccc(NC(=S)N2CCN(C/C=C/c3ccccc3)CC2)c(F)c1 | inconclusive: 7.94 µM [inhibitor, partial curve, poor fit]
50 | CCOC(=O)c1sc(=S)n(Cc2ccccc2)c1N | inconclusive: 15.8 µM [inhibitor, partial curve, poor fit]
51 | CC1(C)CC(Nc2ccc(Nc3ccccc3)cc2)CC(C)(C)N1 | inconclusive: 11.2 µM [inhibitor, partial curve, poor fit]
52 | Cc1ccccc1-n1c(CSC(=N)N)nc2ccccc2c1=O | inactive
53 | COc1ccc(OCC(=O)Nc2ccc(S(=O)(=O)N3CCCCCC3)cc2)cc1 | inconclusive: 28.2 µM [inhibitor, single point]
54 | CCCCc1ccc(Nc2nc(N3CCOCC3)nc(N3CCOCC3)n2)cc1 | inconclusive: 1.78 µM [inhibitor, full curve, poor fit]
55 | COc1ccccc1NOC(=O)CCOc1ccccc1 | inconclusive: 20 µM [inhibitor, single point]
56 | Cc1ccc(C)c(CN2CCCN(C(=O)Cn3ncc4c3-c3ccccc3OC4)C2)c1 | inconclusive: 12.6 µM [inhibitor, partial curve, poor fit]
57 | Cc1oc(-c2ccccc2Cl)nc1CS(=O)CC(=O)NCc1ccc(Cl)cc1 (stereo not drawn) | inconclusive: 20 µM [inhibitor, single point] and inconclusive: 8.91 µM [inhibitor, partial curve, poor fit]
58 | CC1CC(C)CN(S(=O)(=O)c2ccc(NC(=O)C3CSC4(C)CCC(=O)N34)cc2)C1 (stereo not drawn) | inconclusive: 28.2 µM [inhibitor, single point]
59 | COc1cccc(CNC(=O)Cc2csc(NC(=O)Nc3ccccc3OC)n2)c1 | inconclusive: 31.6 µM [inhibitor, partial curve, poor fit]
60 | COc1ccccc1C(=O)NNC(=O)c1cc2ccccc2cc1O | inconclusive: 25.1 µM [inhibitor, single point]
61 | Cc1ccc(SCC(=O)Nc2ccccc2N2CCOCC2)cc1 | active: 7.94 µM
62 | COc1ccc(CCNC(=O)CSc2cn(CCNC(=O)c3cccc(C(F)(F)F)c3)c3ccccc23)cc1OC | inconclusive: 28.2 µM [inhibitor, single point]
63 | Cc1ccc2nc(Br)c3c(c2c1)OC(CBr)C3 (stereo not drawn) | inconclusive: 10 µM [inhibitor, single point]
